Assay results: article PMC4336329 (PLoS ONE, 2015)
Screen size: about 310,000 compounds; about 14,000 (4.5%) showed an effect of 50% or more. The effect is printed as a negative number. Some of the results follow.

biological target: human ether-à-go-go-related gene (hERG) potassium channel (human, UniProt Q12809); test: primary screen, population patch clamp on CHO cells stably expressing hERG
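Further: peak tail current of the secondary pulse compared with the same well before compound.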

Sequence of human ether-à-go-go-related gene (hERG) potassium channel (Q12809 whole entry, looked up): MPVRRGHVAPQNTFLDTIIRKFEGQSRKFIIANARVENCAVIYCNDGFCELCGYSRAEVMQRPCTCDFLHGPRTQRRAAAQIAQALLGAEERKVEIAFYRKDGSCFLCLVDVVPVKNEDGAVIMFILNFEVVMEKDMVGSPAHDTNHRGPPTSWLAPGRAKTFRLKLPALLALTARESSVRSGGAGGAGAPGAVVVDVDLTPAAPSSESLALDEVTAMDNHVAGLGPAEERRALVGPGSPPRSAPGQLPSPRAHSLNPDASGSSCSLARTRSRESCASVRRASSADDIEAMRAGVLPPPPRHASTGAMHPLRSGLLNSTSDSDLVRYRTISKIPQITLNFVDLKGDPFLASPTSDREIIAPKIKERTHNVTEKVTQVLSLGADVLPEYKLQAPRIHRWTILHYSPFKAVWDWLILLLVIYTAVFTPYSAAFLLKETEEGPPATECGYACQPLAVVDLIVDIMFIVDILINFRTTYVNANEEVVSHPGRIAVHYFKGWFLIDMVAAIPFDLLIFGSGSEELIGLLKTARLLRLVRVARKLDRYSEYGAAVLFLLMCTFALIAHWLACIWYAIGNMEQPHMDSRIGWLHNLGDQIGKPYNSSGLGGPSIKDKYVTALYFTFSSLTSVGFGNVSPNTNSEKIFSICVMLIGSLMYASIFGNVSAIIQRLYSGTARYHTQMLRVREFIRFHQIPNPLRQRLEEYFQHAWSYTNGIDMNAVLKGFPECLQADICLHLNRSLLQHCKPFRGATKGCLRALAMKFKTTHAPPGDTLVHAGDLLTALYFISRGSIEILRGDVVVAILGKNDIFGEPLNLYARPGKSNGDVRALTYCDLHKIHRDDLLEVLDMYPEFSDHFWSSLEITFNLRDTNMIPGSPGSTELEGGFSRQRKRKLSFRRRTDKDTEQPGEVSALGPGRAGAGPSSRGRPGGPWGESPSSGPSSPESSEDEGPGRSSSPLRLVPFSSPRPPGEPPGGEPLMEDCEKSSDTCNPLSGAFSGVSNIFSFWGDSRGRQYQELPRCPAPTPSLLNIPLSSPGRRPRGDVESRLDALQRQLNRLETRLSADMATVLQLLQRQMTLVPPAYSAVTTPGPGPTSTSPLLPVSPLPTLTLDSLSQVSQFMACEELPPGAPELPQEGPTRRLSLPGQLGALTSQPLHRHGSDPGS

Going from `CCN1CCN(c2ccc(S(=O)(=O)N3CCCCC3)cc2NC(=O)COc2ccc(Cl)c(C)c2)CC1` to `CS(=O)(=O)c1ccc(Cl)c(NC(=O)C2CCCN(C(=O)c3ccc(Cl)cc3)C2)c1` (centres unmarked), the “hERG current change (%, negative = inhibition) at 10uM” value rises from -34.5% to -20.1%.

Going from `C=CCN(c1ccc(C(N)=O)cc1)S(C)(=O)=O` to `CN(C)c1ccc(C(=O)Nc2ccc(S(=O)(=O)Nc3nccs3)cc2)cc1`, the “hERG current change (%, negative = inhibition) at 10uM” value rises from 10.4% to 12.9%.

Compared with `O=C(Nc1cccc2ncccc12)c1ccc(OCc2ccccc2)cc1`, `COc1ccc(C(=O)NN/C(C)=C/C(=O)c2ccccc2)cc1` is higher in “hERG current change (%, negative = inhibition) at 10uM” value: -12% for the first, 4.41% for the second.

First: O=C1CC(c2cccc(Cl)c2)CC(O)=C1C=NC1CCCC1 (centres unmarked)
Second: CCN(CC)C(=O)C1CCCN(c2ccc([N+](=O)[O-])cc2/C=N/NC(=O)c2cccc(O)c2)C1 (centres unmarked)
The “hERG current change (%, negative = inhibition) at 10uM” value of the first is lower: -59.8% for the first, -16.9% for the second.

Going from `O=C(Nc1ccn([C@H]2CC[C@@H](CO)O2)c(=O)n1)c1ccccc1` to `O=C(Nc1ccncc1)C1CC1c1ccccc1` (centres unmarked), the “hERG current change (%, negative = inhibition) at 10uM” value rises from -5.68% to 2.98%.

Going from `COc1cccc(C(=O)Nn2cnnc2)c1OC` to `COc1ccccc1NC(=O)c1coc(=O)c(Br)c1`, the “hERG current change (%, negative = inhibition) at 10uM” value falls from 13.7% to 8.72%.

Going from `Cc1ccc(/C=C/S(=O)(=O)NCC(=O)OCC(=O)Nc2ccc(C(=O)N(C)C)cc2)cc1` to `CCOC(=O)N1CCN(C(=O)c2ccc(NS(=O)(=O)c3ccc(F)cc3)cc2)CC1`, the “hERG current change (%, negative = inhibition) at 10uM” value falls from 8.71% to -1.81%.

Compared with `CN(C(=O)CNC(=O)c1ccc(Br)o1)C1CCCCC1`, `CCN(C(=O)COC(=O)c1cnc(C)cn1)C1CCCCC1` is lower in “hERG current change (%, negative = inhibition) at 10uM” value: 21.8% for the first, -0.161% for the second.

Compared with `CCN(CC)C(=O)CSc1nnc(-c2cnccn2)n1-c1ccccc1`, `CCOC(=O)CSc1nnc2c3ccccc3n(CC)c2n1` is higher in “hERG current change (%, negative = inhibition) at 10uM” value: 0.233% for the first, 6.98% for the second.

Going from `CC(C)CN(C(=O)COC(=O)c1ccc2ccccc2n1)C1CCS(=O)(=O)C1` (centres unmarked) to `Cc1nc2ccccc2nc(C)c1=NOCC(=O)N(c1ccccc1)C(C)C`, the “hERG current change (%, negative = inhibition) at 10uM” value falls from 14.3% to -18.6%.

Compared with `Cc1cc(NC(=O)C(C)N2C(=O)c3ccccc3S2(=O)=O)no1` (centres unmarked), `Cc1c(NC(=O)c2noc(C(C)C)c2[N+](=O)[O-])c(=O)n(-c2ccccc2)n1C` is higher in “hERG current change (%, negative = inhibition) at 10uM” value: 5.14% for the first, 8.49% for the second.

Going from `CC(=O)N1N=C(c2ccco2)CC1c1ccc(Br)cc1` (centres unmarked) to `COc1cccc2cc(/C(=N/O)c3ccc(Br)cc3)oc12`, the “hERG current change (%, negative = inhibition) at 10uM” value rises from -13.4% to 5.41%.

Going from `CCS(=O)(=O)N1CCN(C(=O)c2cccc3ccccc23)CC1` to `CCSc1ccccc1C(=O)N1CCN(Cc2ccc3c(c2)OCO3)CC1`, the “hERG current change (%, negative = inhibition) at 10uM” value falls from 12.8% to 2.37%.

Going from `CCCCCCC(c1c(C)n(C)n(-c2ccccc2)c1=O)c1c(C)n(C)n(-c2ccccc2)c1=O` to `Cc1ccc([C@@H]2[C@@H]3C(=O)N(c4ccccc4)C(=O)[C@@H]3[C@]3(Cc4ccccc4)C(=O)N(CC4CC4)CC(=O)N23)o1`, the “hERG current change (%, negative = inhibition) at 10uM” value rises from -40.4% to 0.669%.

Going from `Cc1cnc(C(=O)OCC(=O)N2CCN(C(=O)c3ccco3)CC2)cn1` to `Cc1ccc(C(=O)OCC(=O)NCc2ccco2)cc1S(=O)(=O)N1CCOCC1`, the “hERG current change (%, negative = inhibition) at 10uM” value rises from -8.85% to -4.94%.

Compared with `O=C(CN(C(=O)CCNC(=O)c1ccco1)c1ccccc1)NC1CCCC1`, `O=C(NC1CCCCCC1)c1ccc(CS(=O)(=O)Cc2ccc(F)cc2)o1` is lower in “hERG current change (%, negative = inhibition) at 10uM” value: 10.1% for the first, 3.52% for the second.

Going from `N#CC1(NC(=O)CSc2nncn2-c2ccccc2F)CCCC1` to `O=C(CCc1nc(-c2ccccc2F)no1)N1CCC2(CC1)OCCO2`, the “hERG current change (%, negative = inhibition) at 10uM” value rises from 6.31% to 6.67%.

Going from `Cc1cc(C)c2oc(-c3ccc(C)c(NC(=S)NC(=O)c4cccs4)c3)nc2c1` to `Cc1cc(C)nc(NC(=O)c2cccc([N+](=O)[O-])c2)c1`, the “hERG current change (%, negative = inhibition) at 10uM” value falls from 8.58% to -3.84%.

Compared with `Clc1ccc(OCc2nn3c(-c4ccco4)nnc3s2)cc1`, `Cc1ncsc1CCOC(=O)c1ccc(Cl)cc1` is higher in “hERG current change (%, negative = inhibition) at 10uM” value: -44.4% for the first, -10.3% for the second.

Compared with `CC(C)COc1ccc(C(=O)Nc2ccc(SC(F)F)cc2)cc1`, `O=C(N[C@@H](CO)C(=O)NCc1ccccc1)c1ccc(C(F)(F)F)cc1` is lower in “hERG current change (%, negative = inhibition) at 10uM” value: 15.7% for the first, -0.237% for the second.

Compared with `O=C(Nc1ccc(F)c(Cl)c1)C1CCCN(C2=NS(=O)(=O)c3ccccc32)C1` (centres unmarked), `NC(=O)c1cc([N+](=O)[O-])ccc1NCCN1C(=O)c2ccccc2C1=O` is higher in “hERG current change (%, negative = inhibition) at 10uM” value: -63% for the first, 3.2% for the second.

First: Cc1cc(C)cc(N2C(=O)CC(Sc3nnnn3-c3ccccc3)C2=O)c1 (centres unmarked)
Second: Cn1c(=O)c2cc(NCc3ccccc3)nnc2n(C)c1=O
The “hERG current change (%, negative = inhibition) at 10uM” value of the first is lower: -9.17% for the first, 3.39% for the second.

Going from `O=[N+]([O-])c1cccc(CN2C[C@@]34C=C[C@@H](C[C@@H]3S2(=O)=O)O4)c1` to `O=[N+]([O-])c1cccc(/C=C/c2ccc3cccc(O)c3n2)c1`, the “hERG current change (%, negative = inhibition) at 10uM” value rises from -12.6% to 8.32%.

Going from `Cc1cc(NC(=O)c2cc(C)on2)no1` to `Cc1[nH]c2ccc(C(=O)NCc3ccccn3)cc2c1C`, the “hERG current change (%, negative = inhibition) at 10uM” value rises from -4.2% to 18.4%.

First: CN1CCN(CCC(C#N)(c2ccccc2)c2ccccc2)CC1.Cl
Second: O=S(=O)(CCN1CCN(c2ccccn2)CC1)c1ccc(F)cc1
The “hERG current change (%, negative = inhibition) at 10uM” value of the first is lower: -62.9% for the first, -10.2% for the second.

First: CC1CC(C)CN(CCCNC(=O)CCC(=O)N2CC(C)Oc3ccccc32)C1 (centres unmarked)
Second: O=C(CCNC(=O)c1ccc(Br)cc1)NCCCN1CCOCC1
The “hERG current change (%, negative = inhibition) at 10uM” value of the first is lower: -32.2% for the first, 11.1% for the second.

First: COc1ccc(-c2cc([C@H]3[C@H]4C=CC[C@@H](C)[C@@H]4C(=O)N3Cc3ccccc3)ccc2F)cc1OC
Second: COc1cc2c(cc1OC)C(=O)CC(C)S2 (centres unmarked)
The “hERG current change (%, negative = inhibition) at 10uM” value of the first is lower: -5.13% for the first, 15.7% for the second.

Compared with `CC(C)C[C@@H](N)c1nnc(SCC(=O)c2ccc(Cl)cc2)o1.Cl`, `CC(C)C[C@H](NC(=O)NCCc1ccc(Cl)cc1)C(=O)O` is higher in “hERG current change (%, negative = inhibition) at 10uM” value: -37.1% for the first, 4.28% for the second.

Going from `CCOC(=O)CSc1nc(C(C)(C)C)nc2ccccc12` to `CC(C)n1nc(CC(=O)O)c2ccccc2c1=O`, the “hERG current change (%, negative = inhibition) at 10uM” value falls from 4.41% to -1.71%.

First: COc1cc2c(cc1OC)C1Cc3ccc(OC)c(OC)c3CN1CC2.Cl (centres unmarked)
Second: CCCC(=O)C1=C(O)C(C(=O)OC)C(C)(C)CC1=NCCc1ccc(OC)c(OC)c1 (centres unmarked)
The “hERG current change (%, negative = inhibition) at 10uM” value of the first is higher: -6.39% for the first, -25.4% for the second.

Going from `Cc1ccsc1CN(C)CC(=O)Nc1ccc([N+](=O)[O-])cc1Cl` to `Cc1ccnc(NC(=O)Cn2ccc([N+](=O)[O-])n2)c1`, the “hERG current change (%, negative = inhibition) at 10uM” value falls from 18.5% to -8.91%.

Going from `Cn1nc(C(F)(F)F)c(C(=O)Nc2ccc(F)cc2F)c1Sc1ccc(C(F)(F)F)cc1` to `Nc1cc(=O)[nH]c(SCC(=O)Nc2ncc(C(F)(F)F)cc2Cl)n1`, the “hERG current change (%, negative = inhibition) at 10uM” value rises from -3.39% to 20%.

First: CCC1(C)Cc2ccccc2/C(=C/C(=O)N2CCCCC2)N1.Cl (centres unmarked)
Second: CCOC(=O)C1(Cc2ccccc2C)CCCN(C(=O)c2ccc(OC)o2)C1 (centres unmarked)
The “hERG current change (%, negative = inhibition) at 10uM” value of the first is higher: -0.76% for the first, -24.4% for the second.

First: Cc1ccc(C)c(S(=O)(=O)Nc2cc3c4c(c2)CCN4C(=O)CC3)c1
Second: Cc1cc(C)c(S(=O)(=O)NCC(c2ccco2)N2CCc3ccccc3C2)c(C)c1 (centres unmarked)
The “hERG current change (%, negative = inhibition) at 10uM” value of the first is lower: -8.33% for the first, 5.85% for the second.

Going from `CCC1(C)NC(=O)N(CC(=O)Nc2sc3c(c2C(=O)OC)CCCCC3)C1=O` (centres unmarked) to `CCN(CC)CCN(Cc1cc2ccc(C)cc2[nH]c1=O)C(=S)Nc1ccccc1C(=O)OC`, the “hERG current change (%, negative = inhibition) at 10uM” value falls from 5.93% to -64.2%.

Compared with `O=C(NCc1ccc(F)cc1)N[C@@H](Cc1ccccc1)C(=O)O`, `CCNC(=O)/C(=C\c1ccccc1)NC(=O)/C=C/c1ccccc1` is lower in “hERG current change (%, negative = inhibition) at 10uM” value: 7.44% for the first, -25.7% for the second.

Going from `Cc1cccc(NC(=O)CSCC(=O)NCc2ccco2)c1` to `COC(=O)c1cccc(NC(=S)NCc2ccco2)c1`, the “hERG current change (%, negative = inhibition) at 10uM” value falls from -1.34% to -13.3%.

First: COCc1c(C(=O)N/N=C/c2ccco2)nnn1-c1nonc1N
Second: C/C(=N\NC(=O)c1ccncc1)c1cc2ccccc2o1
The “hERG current change (%, negative = inhibition) at 10uM” value of the first is higher: 18% for the first, -20.5% for the second.

Going from `Cc1ccc(SCc2cc(=O)[nH]c(N3CCCCC3)n2)cc1` to `CC1CCN(c2ccc(C(=O)O)cc2N)CC1`, the “hERG current change (%, negative = inhibition) at 10uM” value rises from -8.62% to 10.2%.

Going from `CCn1cc(S(=O)(=O)NCc2ccc3c(c2)OCO3)cn1` to `CC1CCN(C(=O)CCNS(=O)(=O)c2ccc3c(c2)oc(=O)n3C)CC1`, the “hERG current change (%, negative = inhibition) at 10uM” value rises from 0.165% to 22.1%.

First: CN(C)C(=O)Cn1c(=O)n(S(=O)(=O)c2ccccc2)c2ccccc21
Second: CC1(C)CC(NC(=O)c2cccc3ccccc23)CC(C)(C)N1
The “hERG current change (%, negative = inhibition) at 10uM” value of the first is higher: 9.25% for the first, 9.24% for the second.

Going from `CCC(C)NC(=O)CCSCCC(=O)NC(C)CC` (centres unmarked) to `CCN(CC)C(=S)NC(=O)c1cc(OC)c(OC)c(OC)c1`, the “hERG current change (%, negative = inhibition) at 10uM” value rises from 17.4% to 17.9%.

First: CCN(CC)S(=O)(=O)c1cc(OC)c(Cl)cc1OC
Second: CC(C)(C)NS(=O)(=O)c1cc(C(=O)O)ccc1Cl
The “hERG current change (%, negative = inhibition) at 10uM” value of the first is higher: 9% for the first, 4.6% for the second.

Compared with `Cc1ccc(-c2csc(Cc3nc(-c4cc5ccccc5oc4=O)cs3)n2)cc1`, `CCc1cc2c(=O)c(-c3nc4ccccc4n3C)coc2c(CN2CCOCC2)c1O` is lower in “hERG current change (%, negative = inhibition) at 10uM” value: 4.35% for the first, -23.7% for the second.

`CCOC(=O)c1c(C)[nH]c(C)c1C=O` was tested, and the “hERG current change (%, negative = inhibition) at 10uM” value was 11.7%.
